Assay results: the supplement of paper PMC11417369
Some of the results follow.

system: PF3D7_0420300 AP2 domain 1 (GST-tagged); experiment: gcPBM binding intensity (ln(normalized median fluorescence intensity)); higher = stronger DNA binding
Procedure, shortened: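 Alexa488 anti-GST antibody, scanned at 488 nm, detected GST-tagged P. falciparum DNA-binding domains that had been expressed in E. coli and incubated for 1 h on an Agilent 4 × 180k array. The array carried primer-extended double-stranded 36-bp intergenic genomic probes and negative controls. Binding intensity is the highest Masliner-normalised natural-log median intensity across replicate spots of either orientation of each probe.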

Row | Sequence | gcPBM binding intensity (ln)
1 | TTATATTTTCTCCGCGTGCACATATGTATACTATAC | 9.55
2 | TAGGGTAGTTATAATTGTACTTTTCTCCAAAAAAAA [XGTACX_site7321] | 8.95
3 | TTTTTGTTTTTTTGTTTATCGTTCGTGACTACATGA [TGCATGCA_negctrl_site124] | 9.3
4 | GAAATCTAAATAGAAACACACATATATATATATATA [CACACA_site3863] | 9.1
5 | AAAAATAAAAAATATAAAAATATAAAAATATAAAAA [XGTACX_negctrl_site51] | 9.21
6 | TTTATTATTTTAACGTGTACAAGGTATATAATATTC [XGTACX_site5241] | 9.18
7 | TAGGTAAATGCAAATTGGTTTAAATCAAAATATAAA [XGTACX_negctrl_site250] | 9.17
8 | GTATCAAAAGAATACACACACACATACAGATATATA [CACACA_site5975] | 10.1
9 | TGATATTATATATATACACACATGTATGTATTTATA [CACACA_site4874] | 9.43
10 | ATAAACAAACATAAATCTGATTTTAATTTTTTTAAG [CACACA_negctrl_site313] | 9.11
11 | AAATATACAATATTCACACAAAAAAATACATTACAA [CACACA_site5004] | 9.5
12 | ATATATTTATATTGTACACACATTTATGCATATATA [CACACA_site7502] | 9.64
13 | TTTCTTACAAAAGCTAGAGTTTTTTTTTTTTTTTTT [XGTACX_negctrl_site341] | 8.75
14 | TGTTTTTATAAAATAAATAAATATATATATATATAT [CACACA_negctrl_site502] | 8.86
15 | TTAGTCCATATTTTTGCACACCATTTTTTTTTTTTT [CACACA_site3927] | 9.67
16 | AGAATAAATATGCACACATGCATATATTTTTACACT [TGCATGCA_site893] | 9.43
17 | ATCCTTAATATGAACACACAAATATATTGCACATAT [CACACA_site6230] | 9.52
18 | TCTTTTTCATCTTTCAACAAAAAATAATATATGTGT [CACACA_negctrl_site866] | 9.24
19 | TAAATTTGTGTTATTAAAAAAATGGTTTAAAAATGT [XGTACX_negctrl_site352] | 9.14
20 | CTCTAATTAATATTTGTACACACATATTTAACCTAC [CACACA_site9043] | 9.63
21 | TAACTTTATTTTCCTGTACACACATTTGACATATTA [CACACA_site9116] | 9.8
22 | TCAAATTACGTAAGAACATGCGATATAAGAAATACG [TGCATGCA_site691] | 9.28

Row | Sequence | gcPBM binding intensity (ln)
23 | TATATATTAATCAAAGTGCAATAATAAAATAAAAGT [GTGCAC_site9490] | 9.71
24 | TTTATACAAAAGAACAGTACAATAAAGGATTTATGA [XGTACX_site811] | 9.2
25 | TAAATAAAATACAAATGTACATAAATAATAAATATA [XGTACX_site1813] | 9.51
26 | ATATAAAAAATATAAGGTACACATATATGTAGATAT [XGTACX_site6792] | 9.6
27 | AATTATTTTAAATATTGTACTATTACAGAATGGTGT [XGTACX_site5693] | 9.19
28 | GGTTAAAAAAAGCATACACACTATCCTCTTTGCTCT [CACACA_site7246] | 9.53
29 | CTTTTTTATTTTTCAACACACATAATAAATTTCTAT [CACACA_site1037] | 9.4
30 | GAACCTTTAAAATACACACCCAAATCCTTTGAAATA [CACACA_site3630] | 9.3
31 | ATATTTTACAAATGCACACATAATTTTTTTTTTTTT [CACACA_site2763] | 9.3
32 | TTTTTTTTTATATATACACACAATAAATAAATATAA [CACACA_site2954] | 9.07
33 | TACATAAATACATACATACACACATATATATATATA [CACACA_site2105] | 9.56
34 | ATATATATATTGAAAAGTACATATATATATATATTA [XGTACX_site1560] | 9.21
35 | TGGATAATCAAAAATTGTACAAGTGTTGTTATTGGT [XGTACX_site8010] | 9.44
36 | ACCGGTGGAACGTTTTGTACATATATAATAATATAT [XGTACX_site2143] | 9.36
37 | CTTGGGAAGTATTCAGTGCAAAATATAAGCAGGTCA [GTGCAC_site9758] | 9.3
38 | AAAAGAAATAAGGATACACACTATTGATAAAAGTAG [CACACA_site4309] | 9.59
39 | TATATTATCAAAATGGTGCAATAATTTCTATATTAT [GTGCAC_site9772] | 9.09
40 | TCGTGGGAAAATATTACACACATTTACTATAGTATC [CACACA_site5836] | 9.45
41 | TATTACAAATAATACCGTACACAAATGTTTTTTTAT [XGTACX_site7977] | 9.23
42 | ACTCTATACATCTAATGTACATGGAAAAAAAAATTC [XGTACX_site733] | 9.18
43 | ACATTGACATGTCGAAGTACTCAAGAAGCATACAAT [XGTACX_site3948] | 9.3
44 | ATATAAATGATATGTACACACATTTATATTTATAAA [CACACA_site7600] | 9.28
